# The RNAGym collection of RNA variant scans (doi:10.1073/pnas.2313332121)
# Variants at the floor of the assay are shown more often than the library holds them.
# B1: TPR 5TU (parent)
# chain: GGAUCUUCUCGAUCUAACAAAAAAGACAAAUCUGCCACAAAGCUUGAGAGCAUCUUCGGAUGCAGAGGCGGCAGCCUUCGGUGGCGCGAUAGCGCCAACGUUCUCAACUAUGACACGCAAAACGCGUGCUCCGUUGAAUGGAGUUUAUCAUG
# Variants of: B1
# Experiment: polymerase ribozyme fitness, log enrichment relative to wild type (log ratio); higher = more active; in vitro selection for triplet polymerase activity
# Procedure, shortened: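 Fitness compares each genotype's enrichment to that of the wild type on a logarithmic scale, averaging replicates with inverse-variance weights. The logarithm is base 2. Enrichment came from Illumina sequencing of input and output libraries after one triplicate round of in vitro selection, which included frozen incubation at −7 °C, of PCR-built, transcribed mutant libraries of each subunit of a heterodimeric triplet polymerase ribozyme. Only genotypes with ≥10 input reads and ≥1 read per output were kept.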
row,Variant,polymerase ribozyme fitness (log ratio)
1,U15C A17C A26G C57A G59C G94U C118U,≤ -4.2
2,U13G A29C U53A,≤ -4.2
3,C14G C54U C76G U82C G86A A107C,≤ -4.2
4,U13G U31G A47G C85A G86A C132U G133C,≤ -4.2
5,C14U A41C C75G G84U C118A,≤ -4.2
6,U13G A40C C57A C125A A142U U146C U148A,≤ -4.2
7,C14G C87G A107G,≤ -4.2
8,C14A A47G A52G U56C G88A C103G U146C A150G,≤ -4.2
9,U15A A26U A49C G50A G83C C99U C116U,≤ -4.2
10,C14G C35U U56G G83A A98U A106U,≤ -4.2
11,C14A G42U A47U A91G C96U C118U,≤ -4.2
12,C14G C27U C57U U102G A120U C149U,≤ -4.2
13,C14U U15G A49G G62A G83A A137G U148G,≤ -4.2
14,C14U A41C A66G C76U G84C C114U C125A,≤ -4.2
15,C14G A26U A64U C79A G92U C93U,≤ -4.2
16,C14A C27U U77G G83C A106G,≤ -4.2
17,C14U G59C C93U A122G A137C U146G,≤ -4.2
18,C14G A19C C75U U82C C93U A97U C105G,≤ -4.2
19,C14A A26U G46A C85U C105A A113G C114A G128A A147G,≤ -4.2
20,U13G C27A C51U C85A C96G,≤ -4.2
21,C14G C32G,-4.17

row,Variant,polymerase ribozyme fitness (log ratio)
1,C14G U56A C85U G140A,≤ -4.2
2,C14A G42A U56A C79G C99G C118U G143C,≤ -4.2
3,C14G C38A A39C U127C A142C A150C,≤ -4.2
4,C14G G50U C95U C96U A115G,-4.1
5,U15A C75G U78G C87A C95A U139G,≤ -4.2
6,C14G A40C C51G G65A C85A U139G,≤ -4.2
7,C14A A20C C27G,≤ -4.2
8,C14U A40G U53G C75A A91U G141U,≤ -4.2
9,C14U A22G G88A A107G U144G,≤ -4.2
10,C14U A26U A29G C32U A60G A98G,≤ -4.2
11,U15C A37G C99G C118A C149G,≤ -4.2
12,C14G U55A U77C G80C C85U A107C C108U G140A,≤ -4.2
13,C14G A26U C27G C35A A52C A91G A107G G126U U130A,≤ -4.2
14,U13G G65A G70A G94A C116U G143U,≤ -4.2
15,U15A U45C C85A U90C C95U A119U,≤ -4.2
16,C14A C99G,-1.66
17,C14A A41C G70A G94C C105G A110G,≤ -4.2
18,C14U A22C A30U C54U C57U A137C G141A U146G,≤ -4.2
19,C14G A39U A120G,≤ -4.2
20,C14G A20U G50A U56A G65U C93A C131A,≤ -4.2
21,C14G C27G G94A,≤ -4.2

row,Variant,polymerase ribozyme fitness (log ratio)
1,U13G A47G C54U C75G C85A G117A G141C U144G C149U,≤ -4.2
2,C14A A39U A49C C57A C79G G86U,≤ -4.2
3,C14G A41U G62C C95U C96A G112U A142U U146A A150G,≤ -4.2
4,U15A G74U C79G,≤ -4.2
5,U13G U56A G71A U135C,≤ -4.2
6,C14U A19C A26C C76G U90C C95A A122U,≤ -4.2
7,C14U U15A A17C A30G C76A G86A A91U C95G A113G,≤ -4.2
8,C14G C27G A41C U55A G94C C95G A107G,≤ -4.2
9,U15C A23C A30G A47G A60G G86C G88U U101G,≤ -4.2
10,C14U G68U G124C U145G,≤ -4.2
11,U15A C57A C76U G84C,-1.52
12,U15A C57U G92A A115U,≤ -4.2
13,C14G G25U A113G C114G U146A,≤ -4.2
14,C14U G88C,≤ -4.2
15,C14U G88U,≤ -4.2
16,C14G G94A A97C G140A,≤ -4.2
17,U13G U56A G86U C131U,-4.16
18,U15A G50U C95U C99G C105U A115G A150C,≤ -4.2
19,C14U C54U C57U C72U G83A,-4.05
20,C14G C96U,-2.21
21,C14G A16G A22C A60U C87U C93U A121C,≤ -4.2

row,Variant,polymerase ribozyme fitness (log ratio)
1,C14A C38U G50A G58U G70C C105G,≤ -4.2
2,C14U C35G G50U U55A C85G A98U A106G,≤ -4.2
3,C14U U55A A73U G94C A115G,≤ -4.2
4,C14A A26G U53A G59A A113C U127A,≤ -4.2
5,U13G A73G G141C,≤ -4.2
6,C14U A26C G48C U53G C54A C93A U145A U148C,≤ -4.2
7,U15A A20U U33A A60C C85G,≤ -4.2
8,C14G A16U C18A C54G G88A A91U C99G A121U U139C,≤ -4.2
9,C14G A24G C27G U53A C57G C95A C96A A119U,≤ -4.2
10,C14G A49G A52C C69G G94U A110G A147C,≤ -4.2
11,U13G C87U,-1.62
12,C14G A39C G68U,≤ -4.2
13,C14U C57G C85U G152A,-3.89
14,C14U U55A C75U C76U,≤ -4.2
15,C14A C35U G58A G86A C96U,-3.96
16,C14G A91U A97G,-3.96
17,C14G A17U C18U C105A A110G U135A U148G,≤ -4.2
18,C14U C76U C87A C95U U101C,≤ -4.2
19,U13G U61A A89U C96U,-3.58
20,C14U A41G G68A A73G,≤ -4.2
